Some of the results follow.
B1: chr5:3590733:3590734:-_ENSMUSG00000040302_ENSMUST00000042753|mus_mus|FALSE|FALSE (ssRNA)
RNA: GGGAGUUCUACAGUCCGACGAUCAGGACUCUCAGGAGAUGUGUUUAAAGCAGCUGUACCAAAUCCAGGCAUAGGUGGAUGGAAACCUUGUCUAGAAUCUUUUGUUCCUUUCUGCUCUGGAACUGGUUUCUUCUUCGCCAUGUACAACAGAGGAUUGAGCAUCA
B2: chr13:74460350:74460351:-_ENSMUSG00000021577_ENSMUST00000022062|mus_mus|FALSE|FALSE (ssRNA)
RNA: GGGAGUUCUACAGUCCGACGAUCCACUGCACAAGAAUAAAGAGACAAAGUCUGGCGCAACUCAAUCCCUUACAGCAAGUACUACCAAGCUGUUGAUCACAAUCUAUGAAGUGACUCCUUGUUCAUGAGAGCAGAAUUUUACCACAACAGAGGAUUGAGCAUCA
B3: chr18:48447474:48447475:+_ENSG00000082212_ENST00000321341|hu_hu|motif|central (ssRNA)
RNA: GGGAGUUCUACAGUCCGACGAUCCCAGAUUUUCUUUUGUGCCUCUUGUUCUGACAGGCCAUUUUCUACCAUAGACAUAACGGUAAGAUUUGCAAUUCCAAGAGCAGCCUCUCCUGCUCCAAGGAAUAAGAUUUUGUGUUCGGACAACAGAGGAUUGAGCAUCA
B4: chr3:9412954:9412955:+_ENSG00000134077_ENST00000452837|hu_mus|hu_hu_hu_mus_False|8_68 (ssRNA)
RNA: GGGAGUUCUACAGUCCGACGAUCGGUUGAUAUCUCUUCUUUGAUGGCUGGAUUUUCAUAAUAGUCCAAGAUAUGAGAAUCUGAAGUGCUGCUGGCAUGCUUUUUCUUACCAUCUUUCUCAUCUGCUUUGACUUCUUGUCCACACAACAGAGGAUUGAGCAUCA
B5: chr9:95013113:95013114:-_ENSG00000196305_ENST00000443024|hu_mus|FALSE|FALSE (ssRNA)
RNA: GGGAGUUCUACAGUCCGACGAUCCUCAGUCAGAAAGGGCGUGUAAGGGGCCAUCAGUCUGCACAGAGAAAGCAGGACACUGAACAGUGUCUCCAGAGCCAUGACACAGUCUUCCACCCCACUCUCACCCUUUAACCUCCUCCUCAACAGAGGAUUGAGCAUCA
B6: 137848527_137849260_819_CDS_ENSG00000120705_ENST00000360541|human|control|control (ssRNA)
RNA: GGGAGUUCUACAGUCCGACGAUCCACUUUGUCCCCAGAAAUAAACAGCUGCACAGCAGUCUCUGCUACUUUCCGAACAUAGUUAUGUCGCUUUUCCAUUCUUAAACGGGCAAAACGCAAGGCUGACUGACCUCCUCUACCGUGCAACAGAGGAUUGAGCAUCA
B7: chrX:20185780:20185781:-_ENSG00000177189_ENST00000379565|hu_mus|motif|central (ssRNA)
RNA: GGGAGUUCUACAGUCCGACGAUCUUUGGUUAUAGUAAACAGGACAGCGCUGGCCUCUCGCUCUGAGAAAAACUUCUGUCGGAGAAUCUUAUCCAGCAAUUCACCUCCUUUCAUAAGUUCUGUUACUACAUACACAUAUUUUCCCAACAGAGGAUUGAGCAUCA
B8: chr1:163112212:163112213:-_ENSG00000143248_ENST00000313961|hu_hu|hu_hu_hu_mus_False|8_88 (ssRNA)
RNA: GGGAGUUCUACAGUCCGACGAUCUUUUAUUAUCAGUAAGAGUGAGUCACAUAGUACGCAAAGUAUUGGAUACAAUAAUCAGGAAACAAACACUAUUGGUCCAGAAUUUAAAACUUUAUGAGCGAAGGCUUACAAAUGGACUUACAACAGAGGAUUGAGCAUCA
B9: chr3:10015032:10015033:+_ENSMUSG00000027533_ENSMUST00000029046|mus_mus|mus_mus_mus_hu_True|88_98 (ssRNA)
RNA: GGGAGUUCUACAGUCCGACGAUCGUUUUUACCAUCACACGUAAUGAUACAGUCUGGCUUGGCCAUUGCGCCCAUUUUUCGCAAAGCUAUUCCCACUCCUAGCUCCUUCAUGUAUUCAUCAAAGCCUUUGCUGUCCACCAGGCGCAACAGAGGAUUGAGCAUCA
B10: chr5:37516192:37516193:+_ENSMUSG00000063646_ENSMUST00000043794|mus_mus|motif|central (ssRNA)
RNA: GGGAGUUCUACAGUCCGACGAUCUCCGUUUGAGAGCUUACAACAGAUAGAGUCUCUUACUUCGAGUUCUAGCACUCUGAAUUCGGACAGCUCGUUCUGGUCCUUGGCGUCUUGCAUUUCGCUCUUUAGCUGGUUCUCCUCCAUCAACAGAGGAUUGAGCAUCA
B11: chr1:82725849:82725850:+_ENSMUSG00000026150_ENSMUST00000078332|mus_mus|FALSE|FALSE (ssRNA)
RNA: GGGAGUUCUACAGUCCGACGAUCGGACCCUCAUUCGCUGACUAAUACCUUCGGUGUAUUCCAUUUCAUACUGAAUUCGACUAAUUUCUGCCAUCUCAGCAGCAGUGGGAGAAGGAAAUGCUGCCCCACUCACCAAAUGUGAAACAACAGAGGAUUGAGCAUCA
B12: chr16:8621372:8621373:+_ENSMUSG00000057880_ENSMUST00000065987|mus_mus|FALSE|FALSE (ssRNA)
RNA: GGGAGUUCUACAGUCCGACGAUCUGUGGUUUUCUACAGUGAACUGUAUAUAUGCGUACAGAGAUAGAUAGGUACAGAUCUAUUAGUACAUGAAUGUGCACAGUUUUUCAUGGUUACUGAGCAUCAGUAAAAAUUAUAAAAAUACAACAGAGGAUUGAGCAUCA
B13: chr2:26491064:26491065:+_ENSMUSG00000036186_ENSMUST00000074240|mus_mus|FALSE|FALSE (ssRNA)
RNA: GGGAGUUCUACAGUCCGACGAUCGAAGUCCGCCAUGAGAAGUAUCUGGUCAACCAGCGCUGGCAGGGAAGGCAGGUCUCCUAAGUUAGCCUUGAGGAAGCUGAGGGUCAUCUCCCGGAACUCCUUGAUGGAAGUUCCCCUGGUCAACAGAGGAUUGAGCAUCA
B14: chr6:143133109:143133110:+_ENSMUSG00000030275_ENSMUST00000032413|mus_hu|FALSE|FALSE (ssRNA)
RNA: GGGAGUUCUACAGUCCGACGAUCUUUGGGGAUCCAGCCAUUGUGUGCAUGAAUAGCAUGGAUUUUAGCAAGCUGACGAGCUAUUAGCCUGAAAAUGGCUGGGUUGCAGACAUGCUUUGGAUCCAGUGCUUCUCCUUGUAUAAACAACAGAGGAUUGAGCAUCA
B15: chr7:34932688:34932689:-_ENSMUSG00000052997_ENSMUST00000102746|mus_hu|motif|central (ssRNA)
RNA: GGGAGUUCUACAGUCCGACGAUCAAGAAGCUUCUUUCUUGGGUUUGGUUGUUUAUUCAAAAAAAUUGUUCUGCACUGGUCGGUUUUUCCUGAUAAAAUCUUCAAUCCUUCCAAUACUAUCAACCCAGCAAUUACUGCAUUAGUCAACAGAGGAUUGAGCAUCA
B16: 37396510_37396630_546_CDS_ENSG00000082068_ENST00000265107|human|control|control (ssRNA)
RNA: GGGAGUUCUACAGUCCGACGAUCUUCUUCUUCAUUAAGAGGUGGAGGUAAAGGACCGAGGAUAUCUUCCUCCAUAAAAUUAACUGGUUUUCCUACCAUUUUAGGGGGUAAAGGAGGGCCAAUUAACUCAUCAUCAGAAGAGUCCAACAGAGGAUUGAGCAUCA
B17: chr4:97781865:97781866:+_ENSMUSG00000028565_ENSMUST00000075448|mus_hu|FALSE|FALSE (ssRNA)
RNA: GGGAGUUCUACAGUCCGACGAUCAAAAGCAAAAACACUGGCAACUGUUGGUGUUUCUUUUUUCCUGCUUGAUCACAACUGAAUAGUUUCCUGCUGCUUUCUGGACAAUGAAACAUGAACAAAAAUGUAACUUCGUGUAUUUAACAACAGAGGAUUGAGCAUCA
B18: 37025648_37030961_747_CDS_ENSMUSG00000040565_ENSMUST00000099494|mouse|control|control (ssRNA)
RNA: GGGAGUUCUACAGUCCGACGAUCUUCUUCAGUACUCAUUCCAAUUGCUUCUCCCAUAUUAAGUCCAAGUUUCUUCUGUAAUAAUUUCCGUUGGCGUGCUAUCCUCUCUUUAGGAUCCACUUCACCUGAUUUUUCAUCUUGGACCAACAGAGGAUUGAGCAUCA
B19: 47153109_47156016_533_CDS_ENSG00000197380_ENST00000391916|human|control|control (ssRNA)
RNA: GGGAGUUCUACAGUCCGACGAUCAGCGCUGGGACUGGCGUCUCCUAGGGACUUGGGCCUCUCACUGGCAUAGAUGCCCCGGGGCUCAGAGGGACCCAGGCGACCAUAGGAGCUGGAUCCAGAGAAGCCACUGUCCCCACAGAACAACAGAGGAUUGAGCAUCA
B20: 113923534_113924362_1485_CDS_ENSG00000119927_ENST00000348367|human|control|control (ssRNA)
RNA: GGGAGUUCUACAGUCCGACGAUCAAUGGACGUGUCUCUACCUUCAUCAGCAGCAUCACUGGGUCUUGAAGGAAGUAUAGCUGGUAACAACGCUUGCUCCAGGGAAAGUAGAGCAGACACCGGUUUCUGACUUUGGCUUUCUAACAACAGAGGAUUGAGCAUCA
B21: chr4:44140560:44140561:-_ENSMUSG00000035696_ENSMUST00000045793|mus_hu|FALSE|FALSE (ssRNA)
RNA: GGGAGUUCUACAGUCCGACGAUCUAGAAGUAUUUCUGAUGCACUGACAACCCUAGGGGCAAACACAGUAUGCAAAACCCUACUUGUAGGACUAGAUAGAGGCAACAAUGUCUCGCAAAGGGCAAAAUUGUGCUUCUGUGAAUUCAACAGAGGAUUGAGCAUCA
B22: 95906523_95907620_660_CDS_ENSMUSG00000006058_ENSMUST00000006217|mouse|control|control (ssRNA)
RNA: GGGAGUUCUACAGUCCGACGAUCUUCACUGACAGUCACAUACCCGUUUUUCUCGGCCAGCUGCAGCACAACAGUGUGAUCCAUAUUGAGCUCAGCGGGAACAGACUGGAUGAGGUAAGUGCCUCCCACAGGGAUGAUGCCGAACAACAGAGGAUUGAGCAUCA

Biological target: T1, UNK ZnF1-3 (human, UniProt Q9C0B0 31-174)
T1 sequence: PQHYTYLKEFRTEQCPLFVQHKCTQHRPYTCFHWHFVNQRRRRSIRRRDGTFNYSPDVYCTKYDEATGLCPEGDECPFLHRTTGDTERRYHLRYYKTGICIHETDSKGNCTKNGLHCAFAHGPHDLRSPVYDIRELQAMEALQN
Assay: nsRBNS (natural sequence RNA bind-n-seq); RBNS binding buffer (assumed for nsRBNS): 25 mM Tris pH 7.5, 150 mM KCl, 3 mM MgCl2, 0.01% Triton X-100, 500 ug/ml BSA, 20 U/ml SUPERase-In, 4 C; UNK is unkempt and MSI1 is Musashi-1; names of the RNAs are library labels; protein concentration not given here; high values mean tight binding

Binder	binding signal [enrichment R]
B1	0.531
B2	1.2
B3	0.583
B4	0.371
B5	1.3
B6	0.992
B7	0.794
B8	1.28
B9	0.686
B10	0.495
B11	1.04
B12	2.87
B13	1.07
B14	0.596
B15	0.812
B16	0.66
B17	0.907
B18	0.481
B19	0.576
B20	1.08
B21	0.911
B22	1.35

Reference: PMC12136788
